From paper PMC6648895
These are yes or no findings as the source states them, for the method shown. For part of these data: Binding seen in cells or lysates may run through a third protein. Some binding calls cover weakened binding; strength is not graded here. For part of these data: Where a sequence is shown, tags or fusion partners need not be part of it. One block for each binder: values may come before it.

Assays:
[1] = target: T1, Rps2 N-terminal 42 amino acids, Gal4 DNA-binding domain fusion (S. cerevisiae) (UniProt P25443); assay: two-hybrid; reporter strain PJ69-4A; bait fused to Gal4 DNA-binding domain (c-Myc), prey fused to Gal4 activation domain (HA); HIS3 reporter for weak, ADE2 reporter for strong interactions; plates 30°C, 3 days
T1 sequence: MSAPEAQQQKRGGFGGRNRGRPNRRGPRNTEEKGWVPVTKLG

[2] = target: T2, Rps2 first 22 amino acids, Gal4 DNA-binding domain fusion (S. cerevisiae) (UniProt P25443); assay: as above
T2 sequence: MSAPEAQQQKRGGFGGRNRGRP

[3] = target: T3, Rps2 ΔN22 (residues 23–254), Gal4 DNA-binding domain fusion (S. cerevisiae) (UniProt P25443); assay: as above
T3 sequence: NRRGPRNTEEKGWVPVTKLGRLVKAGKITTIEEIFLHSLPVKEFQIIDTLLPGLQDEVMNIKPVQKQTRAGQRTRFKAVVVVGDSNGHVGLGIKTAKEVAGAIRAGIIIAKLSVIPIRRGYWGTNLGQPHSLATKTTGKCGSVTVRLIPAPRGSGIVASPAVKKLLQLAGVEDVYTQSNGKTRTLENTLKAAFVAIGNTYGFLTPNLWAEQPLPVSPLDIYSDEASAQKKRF

[4] = target: T4, Rps2 ΔN42, Gal4 DNA-binding domain fusion (S. cerevisiae) (UniProt P25443); assay: as above
T4 sequence: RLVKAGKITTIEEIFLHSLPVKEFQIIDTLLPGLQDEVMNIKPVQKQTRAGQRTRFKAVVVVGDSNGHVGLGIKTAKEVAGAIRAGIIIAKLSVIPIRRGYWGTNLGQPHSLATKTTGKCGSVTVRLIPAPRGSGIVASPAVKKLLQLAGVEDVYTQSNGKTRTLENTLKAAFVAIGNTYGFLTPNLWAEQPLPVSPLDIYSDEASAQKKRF

[5] = target: T5, Rps2, Gal4 DNA-binding domain fusion (S. cerevisiae) (UniProt P25443); assay: as above
T5 sequence: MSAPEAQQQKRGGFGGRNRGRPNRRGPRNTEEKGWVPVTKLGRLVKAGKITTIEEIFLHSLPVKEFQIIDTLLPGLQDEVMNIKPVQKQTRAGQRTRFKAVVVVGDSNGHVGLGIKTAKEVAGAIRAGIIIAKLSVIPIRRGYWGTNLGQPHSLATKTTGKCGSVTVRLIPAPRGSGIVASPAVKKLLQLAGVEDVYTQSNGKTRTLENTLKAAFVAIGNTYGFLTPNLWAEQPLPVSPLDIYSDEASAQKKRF

Nap1-TAP (S. cerevisiae) = target: T6, Nap1-TAP (S. cerevisiae) (UniProt P25293); assay: co-IP; Nap1-TAP Rps6a-Flag split purification from yeast lysate: IgG Sepharose, TEV elution, then Calmodulin Sepharose or Anti-FLAG M2 Affinity Gel; Western blotting of eluates
T6 sequence: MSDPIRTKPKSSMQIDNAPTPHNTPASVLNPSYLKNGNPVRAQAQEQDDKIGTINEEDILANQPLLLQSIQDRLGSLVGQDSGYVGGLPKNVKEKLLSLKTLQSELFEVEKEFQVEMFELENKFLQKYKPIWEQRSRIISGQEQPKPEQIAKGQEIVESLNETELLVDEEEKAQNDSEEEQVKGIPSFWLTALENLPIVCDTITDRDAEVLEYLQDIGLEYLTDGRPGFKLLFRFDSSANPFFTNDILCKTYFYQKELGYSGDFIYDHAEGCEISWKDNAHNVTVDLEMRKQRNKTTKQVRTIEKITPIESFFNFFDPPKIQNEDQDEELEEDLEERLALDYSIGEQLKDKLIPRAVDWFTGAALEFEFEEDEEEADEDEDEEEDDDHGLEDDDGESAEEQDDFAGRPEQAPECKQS

[6] = target: T7, Rps6a-Flag (S. cerevisiae) (UniProt P0CX37); assay: as above
T7 sequence: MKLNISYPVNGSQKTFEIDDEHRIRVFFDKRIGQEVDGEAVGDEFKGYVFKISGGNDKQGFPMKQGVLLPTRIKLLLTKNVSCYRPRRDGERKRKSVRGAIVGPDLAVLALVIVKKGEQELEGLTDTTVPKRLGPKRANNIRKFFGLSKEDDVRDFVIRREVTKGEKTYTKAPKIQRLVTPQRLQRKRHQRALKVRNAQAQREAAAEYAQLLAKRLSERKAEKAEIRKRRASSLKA

[7] = target: T8, Rps15, Gal4 domain fusion (S. cerevisiae) (UniProt Q01855); assay: two-hybrid; reporter strain PJ69-4A; bait fused to Gal4 DNA-binding domain (c-Myc), prey fused to Gal4 activation domain (HA); HIS3 reporter for weak, ADE2 reporter for strong interactions; plates 30°C, 3 days
T8 sequence: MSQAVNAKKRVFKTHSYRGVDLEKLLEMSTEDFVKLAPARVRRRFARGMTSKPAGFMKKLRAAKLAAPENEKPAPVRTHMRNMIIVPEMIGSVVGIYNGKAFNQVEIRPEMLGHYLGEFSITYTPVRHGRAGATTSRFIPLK

Tsr4-TAP (S. cerevisiae) = target: T9, Tsr4-TAP (S. cerevisiae) (UniProt P25040); assay: co-IP; Tsr4-TAP purified from yeast lysate via IgG-Sepharose up to TEV elution; Western blotting of the eluate
T9 sequence: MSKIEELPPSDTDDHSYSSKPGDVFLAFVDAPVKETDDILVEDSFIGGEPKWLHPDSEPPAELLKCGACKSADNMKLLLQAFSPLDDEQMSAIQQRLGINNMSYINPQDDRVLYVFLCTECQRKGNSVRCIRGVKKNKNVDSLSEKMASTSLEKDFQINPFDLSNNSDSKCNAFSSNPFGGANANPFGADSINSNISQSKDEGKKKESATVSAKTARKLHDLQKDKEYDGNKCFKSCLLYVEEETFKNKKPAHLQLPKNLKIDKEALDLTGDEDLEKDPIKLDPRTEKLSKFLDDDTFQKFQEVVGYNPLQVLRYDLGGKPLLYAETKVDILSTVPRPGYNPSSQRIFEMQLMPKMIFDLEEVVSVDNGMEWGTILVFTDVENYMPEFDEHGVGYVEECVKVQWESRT

binding [1]: binds
binding [2]: binds weakly
binding [3]: binds weakly
binding [4]: no binding
binding [5]: binds
B1: Tsr4, Gal4 activation domain fusion (full-length) (protein, UniProt P25040 1-408)
chain: MSKIEELPPSDTDDHSYSSKPGDVFLAFVDAPVKETDDILVEDSFIGGEPKWLHPDSEPPAELLKCGACKSADNMKLLLQAFSPLDDEQMSAIQQRLGINNMSYINPQDDRVLYVFLCTECQRKGNSVRCIRGVKKNKNVDSLSEKMASTSLEKDFQINPFDLSNNSDSKCNAFSSNPFGGANANPFGADSINSNISQSKDEGKKKESATVSAKTARKLHDLQKDKEYDGNKCFKSCLLYVEEETFKNKKPAHLQLPKNLKIDKEALDLTGDEDLEKDPIKLDPRTEKLSKFLDDDTFQKFQEVVGYNPLQVLRYDLGGKPLLYAETKVDILSTVPRPGYNPSSQRIFEMQLMPKMIFDLEEVVSVDNGMEWGTILVFTDVENYMPEFDEHGVGYVEECVKVQWESRT

binding (Nap1-TAP (S. cerevisiae)): binds
binding [6]: binds
B2: Enp1 (protein, UniProt P38333 1-483)
chain: MARASSTKARKQRHDPLLKDLDAAQGTLKKINKKKLAQNDAANHDAANEEDGYIDSKASRKILQLAKEQQDEIEGEELAESERNKQFEARFTTMSYDDEDEDEDEDEEAFGEDISDFEPEGDYKEEEEIVEIDEEDAAMFEQYFKKSDDFNSLSGSYNLADKIMASIREKESQVEDMQDDEPLANEQNTSRGNISSGLKSGEGVALPEKVIKAYTTVGSILKTWTHGKLPKLFKVIPSLRNWQDVIYVTNPEEWSPHVVYEATKLFVSNLTAKESQKFINLILLERFRDNIETSEDHSLNYHIYRAVKKSLYKPSAFFKGFLFPLVETGCNVREATIAGSVLAKVSVPALHSSAALSYLLRLPFSPPTTVFIKILLDKKYALPYQTVDDCVYYFMRFRILDDGSNGEDATRVLPVIWHKAFLTFAQRYKNDITQDQRDFLLETVRQRGHKDIGPEIRRELLAGASREFVDPQEANDDLMIDVN

binding [7]: no binding
B3: Sef1, Gal4 domain fusion (protein, UniProt P34228 1-1148)
chain: MVKDNRDSDQDQDFSSAHMKRQPEQQQLQQHQFPSKKQRISHHDDSHQINHRPVTSCTHCRQHKIKCDASQNFPHPCSRCEKIGLHCEINPQFRPKKGSQLQLLRQDVDEIKSKLDTLLANDSVFVHLLQQIPMGNSLLNKLNLHPTPTPGTIIPNPDSSPSSGSPTSSAAQRDSKVSVQTYLSREPQLLQANQGSNTNKFKANNEASSHMTLRASSLAQDSKGLVATEPNKLPPLLNDSALPNNSKESLPPALQMAFYKNNSAGNTPNGPFSPIQKTYSPHTTSTTVTTTTNQPPFAATSHVATNNNADRTKTPVVATTTTMPLLPSPHANVDEFVLGDISISIEKANRLHHIFVTRYLPYFPIMYSNNATELYSQSQLLFWTVMLTACLSDPEPTMYCKLSSLIKQLAIETCWIRTPRSTHISQALLILCIWPLPNQKVLDDCSYRFVGLAKSLSYQLGLHRGEFISEFTRTQTSMPNAEKWRTRTWLGIFFAELCWASILGLPPTSQTDYLLEKALSCGDEESEEDNNDSIDNNNNDKRNKKDEPHVESKYKLPGSFRRLLSLANFQAKLSHIIGSSTSSPDGLLEPKYRAETLSILGKELDLLAKTLNFQSDDTVNIYFLYVKLTVCCFAFLPETPPTDQIPYVTEAYLTATKIVTLLNNLLETHQLIELPIYIRQAATFSALILFKLQLTPLLPDKYFDSARQSVVTIHRLYRNQLTAWATSVENDISRTASMLEKLNFVLIMHPEVFVEEDGIISRMRSHLTGSLFYDLVWCVHEARRREMDPEYNKQALEKAAKKRKFSSNGIYNGTSSTGGITDRKLYPLPLYNHISRDDFETVTKTTPSGTTVTTLVPTKNALKQAEKLAKTNNGDSDGSIMEINGIPLSMLGETGSVKFQSLFANTSNSNDYNNNRTLLDASNDISIPSNSIYPVASVPASNNNPQSTKVDYYSNGPSVIPDLSMKRSVSTPVNHFPASVPGLRNHPVGNLSNNVTLGIDHPIPREHSNLQNVTMNYNNQFSNANAIGRSQSSMSHSRTPIASKSNNMTDLHSVVSDPGSSKSTAYPPLSLFSKSNDINSNKTNQRFSTGTNTVTSSNFQTIDNENNVKTPGNKLTDFFQQQSAGWIEGNSSNDDFFGWFDMNMEQGF

binding (Tsr4-TAP (S. cerevisiae)): binds
B4: Rps2 (endogenous) (protein, UniProt P25443 1-254)
chain: MSAPEAQQQKRGGFGGRNRGRPNRRGPRNTEEKGWVPVTKLGRLVKAGKITTIEEIFLHSLPVKEFQIIDTLLPGLQDEVMNIKPVQKQTRAGQRTRFKAVVVVGDSNGHVGLGIKTAKEVAGAIRAGIIIAKLSVIPIRRGYWGTNLGQPHSLATKTTGKCGSVTVRLIPAPRGSGIVASPAVKKLLQLAGVEDVYTQSNGKTRTLENTLKAAFVAIGNTYGFLTPNLWAEQPLPVSPLDIYSDEASAQKKRF
